The list shows a part of the results.
B1: chr17:5384886:5384987:+|3pUTR|ENSG00000029725|unk|total|mutant (ssRNA)
RNA: GGGAGUUCUACAGUCCGACGAUCGGUUUAAGACCCGUCCCUUGGAUAAGCCCCAAGCGAAUUUGUCUUCAGAUUAUUAAAAUCCGUGCUGUAAAUCAGGGUGGGCAAUUCACAGCCUUUCUGAACUGACUGAACCCGAGCUUGCAACAGAGGAUUGAGCAUCA
B2: chr3:62294290:62294391:+|3pUTR|ENSG00000144724|msi1|total|mutant (ssRNA)
RNA: GGGAGUUCUACAGUCCGACGAUCAACCCGUCCUCUAAAAAUUCCCUAUUACUCCUACCGCAAUCUAAUAAAAACUACCUACACCGUUACUGUUUUCUUUCCUUCUUUGCCAAAUGUUUUAUAAUAAAUCUCUUAAUUACAUACCAACAGAGGAUUGAGCAUCA
B3: chr4:109463114:109463221:+|CDS|ENSG00000138802|unk|FALSE|unique (ssRNA)
RNA: GGGAGUUCUACAGUCCGACGAUCAGGAGCACAGCAGUUGUACAGCAGGGGUCCUCCUGCCCCUCAUAUUGUGGGAUCCACUCUAGGAUCUUUCCAAGGUGCUGCAUCGUCAGCAUCCCAUUUGCAUACGAGUGCCUCCCAACCCAACAGAGGAUUGAGCAUCA
B4: chr12:6238111:6238124:+|3pUTR|ENSG00000010278|msi1_unk|total|mutant (ssRNA)
RNA: GGGAGUUCUACAGUCCGACGAUCUGUUUGUUUUUGCUUGUUAUAUUAAGCAGAAAUCCUGCAAUGAAAGGUACUAUAUUUGCCCGACUCCCGACAAGAUAUUGUACAUAAAAGAAUUUUUUUGUCUUUAAACCGAUACAAAUGCAACAGAGGAUUGAGCAUCA
B5: chr16:67976092:67976228:-|CDS|ENSG00000141096|control|control|control (ssRNA)
RNA: GGGAGUUCUACAGUCCGACGAUCCCUCAGGGGCUGGAGGAUGUGUCCACAUACCCAGUCCUGAUAGAGGAGUUGCUGAGUCGUAGCUGGAGCGAGGAAGAGCUUCAAGGUGUCCUUCGUGGAAACCUGCUGCGGGUCUUCAGACAACAGAGGAUUGAGCAUCA
B6: chr19:10683396:10683509:+|CDS|ENSG00000129351|unk|FALSE|bound_elsewhere (ssRNA)
RNA: GGGAGUUCUACAGUCCGACGAUCGUUCCAAGGUGCUGGUUCCAACAAAAAGGUGGCGAAGGCCUACGCUGCUCUUGCUGCCCUAGAAAAGCUUUUCCCUGACACCCCUCUCGCCCUUGAUGCCAACAAAAAGAAGAGAGCCCCCAACAGAGGAUUGAGCAUCA
B7: chr7:41967724:41967825:-|CDS|ENSG00000106571|msi1|FALSE|bound_elsewhere (ssRNA)
RNA: GGGAGUUCUACAGUCCGACGAUCCCCCAUCAGCAACUAUUCCAACAGUGGGCUCGAGCUUCCUCUGACCGAUGGAGGUAGUAUAGGAGACCUCAGUGCCAUCGAUGAAACCCCAAUCAUGGACUCAACCAUUUCCACUGCAACCAACAGAGGAUUGAGCAUCA
B8: ENSG00000070961:be:win_6151|3pUTR|ENSG00000070961|bound_else_gene|NA|bound_elsewhere_windowed (ssRNA)
RNA: GGGAGUUCUACAGUCCGACGAUCCAAUCACUUUUUCUCUUUUAUCCUCUAACCAAAAAAUUGUUUAAUUUUGCAUCCCAAAUGUUUUUAAUCUUUGUAUAUUUUUUAAAAAUCCUUUUCUCCUCAUCAUUGCCUUUUUUGUGGCAACAGAGGAUUGAGCAUCA
B9: chr22:27980698:27980799:-|3pUTR|ENSG00000100154|unk|total|mutant (ssRNA)
RNA: GGGAGUUCUACAGUCCGACGAUCUAACCAUUAAUUUAUUUUAUAAAGAAAGGAAAUGCUGAAAGUCGUAUCCGUACUGAGUUCCGUUGGAGAAUUCCGAUAAGUAAGUAUCUUUCCGGUAAUUCUAAAAUUAAAAUCCUACCCCAACAGAGGAUUGAGCAUCA
B10: ENSG00000136451:be:win_1401|CDS|ENSG00000136451|bound_else_gene|NA|bound_elsewhere_windowed (ssRNA)
RNA: GGGAGUUCUACAGUCCGACGAUCCACCCCCGUCACUGCCCCAGUGAAUAUAGCACACCCUGUCACCAUCACAUCUCCAAUGAAUCUACCCACACCUAUGACAUUAGCCGCCCCUCUCAAUAUAGCAAUGAGACCUGUAGAGAGCAACAGAGGAUUGAGCAUCA
B11: chr12:6965432:6965572:-|3pUTR|ENSG00000215021|unk|total|mutant (ssRNA)
RNA: GGGAGUUCUACAGUCCGACGAUCUGCGAUGGUCCCCCACACCGGUUCCCUGAACCCCUCUUGGAUUAAGGAAGACUGAAGACCCGCCCCUUUUCUGGGGAAUUACUUUCCUCCUCCCUGUGUUAACUGGGGCUGUUGGGGACACAACAGAGGAUUGAGCAUCA
B12: chr19:12699869:12699961:-|3pUTR|ENSG00000105576|msi1_unk|FALSE|overlapping (ssRNA)
RNA: GGGAGUUCUACAGUCCGACGAUCGAGGGUGGGGGUGUAGUUACUUCCCAGUUGGCCAGAAAACUGGGCCUUGCAGACCCCCUUAGCAUUUUUUCCCUUUUUUUCCUUCCCUGCUUUCUACUUCUUUGGGGAGCCCCUUGUGUUCAACAGAGGAUUGAGCAUCA
B13: ENSG00000124766:be:win_2801|3pUTR|ENSG00000124766|bound_else_gene|NA|bound_elsewhere_windowed (ssRNA)
RNA: GGGAGUUCUACAGUCCGACGAUCUUUUUCCUUCACCGAUGCUCCAUCCUCGUAUUUCUUUUUCCUUGUAAAUGUAAUCAGAUGCCAUUUUAUAUGUGGACGUAUUUAUACUGGCCAAACAUAUUUUUUCUUUUGUCCCUUUUUCAACAGAGGAUUGAGCAUCA
B14: chr3:179334266:179334377:+|CDS|ENSG00000121864|unk|total|mutant (ssRNA)
RNA: GGGAGUUCUACAGUCCGACGAUCUUAUUUAUGUCAAUAUUGUGAAUAUUCAACAGGACAAAUUGAAGAUCUUAAAAUUCAUCCCGAUUUCAAGCAUUCAGCUGACUUGCCUCAUAAAUGCCGUGACUGCUUGAUGAGGUUUGGCAACAGAGGAUUGAGCAUCA

molecular target: MSI1 full-length (mouse, UniProt Q61474 1-362); experiment: nsRBNS (natural sequence RNA bind-n-seq); RBNS binding buffer (assumed for nsRBNS): 25 mM Tris pH 7.5, 150 mM KCl, 3 mM MgCl2, 0.01% Triton X-100, 500 ug/ml BSA, 20 U/ml SUPERase-In, 4 C; UNK is unkempt and MSI1 is Musashi-1; names of the RNAs are library labels; protein concentration not given here; high values mean tight binding
Chain of UniProt Q61474 (Q61474 whole entry): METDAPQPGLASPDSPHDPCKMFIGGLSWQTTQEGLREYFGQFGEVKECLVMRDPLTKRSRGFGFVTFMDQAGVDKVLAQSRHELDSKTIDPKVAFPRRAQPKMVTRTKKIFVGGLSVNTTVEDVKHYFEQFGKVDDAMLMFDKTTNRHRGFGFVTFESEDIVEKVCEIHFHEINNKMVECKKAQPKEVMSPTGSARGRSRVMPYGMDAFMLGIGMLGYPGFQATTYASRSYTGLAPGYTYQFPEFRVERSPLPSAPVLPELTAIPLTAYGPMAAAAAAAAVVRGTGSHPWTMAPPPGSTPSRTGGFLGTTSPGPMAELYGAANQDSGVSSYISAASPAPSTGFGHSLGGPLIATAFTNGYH

Binder	binding signal
B1	0.297 enrichment R
B2	8.49 enrichment R
B3	0.442 enrichment R
B4	0.379 enrichment R
B5	0.423 enrichment R
B6	0.717 enrichment R
B7	0.819 enrichment R
B8	3.25 enrichment R
B9	0.561 enrichment R
B10	5.67 enrichment R
B11	0.45 enrichment R
B12	1.19 enrichment R
B13	2.78 enrichment R
B14	0.18 enrichment R
